Laboratory results: patent US9872922B2, “Anti-EFNA4 antibody-drug conjugates” (PFIZER, INC., priority 2013, dated 2018)

Test system: HEK293T-EFNA4 cells
Assay: Phosphorylated histone H2A.X foci (DNA damage), HEK293T-EFNA4
Type: cell-based, human
Settings: 0.3 μg/mL, four hours
Excerpt: Cells were visualized with a Zeiss LSM510 confocal microscope and analyzed for the y^− H2A.X biomarker of DNA damage and DNA content.

B1: huE22 (antibody)
heavy: QVQLVQSGAEVKKPGASVKVSCKASGYTFTGYYIHWVRQAPGQGLEWMGWIYPGNFNTKYNERFKGRVTMTTDTSTSTAYMELRSLRSDDTAVYYCAREDGSPYYAMDYWGQGTSVTVSS[human IgG1 constant region omitted here]
VL: DIVMTQTPLSLSVTPGQPASISCRSSQSLVHSNGNTFLYWYLQKPGQSPQLLIYRVSNRFSGVPDRFSGSGSGTDFTLKISRVEAEDVGVYYCFQATHVPWTFGGGTKVEIK
Q: B1 was tested. Which “H2A.X foci (DNA damage)” value did it give?
A: no foci were observed
